{"source": "PubChem BioAssay AID686979", "about": "(National Center for Advancing Translational Sciences (NCATS), 2013)", "note": "In all, about 420,000 compounds went through this assay and about 50,000 (12%) were called active. Inconclusive means that the source gave no clear call. Such entries were picked first, then a sample of the others. Calls follow the shape of the dose curve; as a rule, active = well fitted inhibition curve with a large enough effect; inconclusive = small, poorly fitted or top-dose-only effect; inactive = flat fitted curve, though single readings scatter. Potencies of inconclusive entries are left out as doubtful fits. % is scaled to controls: 0 for no effect and ±100 for the full control effect; potency is read from the fitted curve at half-maximal effect; tags tell the direction and shape of the fitted curve.", "data": [{"test": "qHTS for Inhibitors of human tyrosyl-DNA phosphodiesterase 1 (TDP1): qHTS in cells in presence of CPT; also: nearly all actives have a fitted effect of over 55% in size", "conditions": "chicken DT40 Tdp1-/-;hTDP1 cells + 20 nM CPT, ATP luminescence, 48 h; activity change, negative = growth inhibition: at 46.2 µM (top of the series) unless noted", "method_in_brief": "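Cell growth measured by CellTiter-Glo luminescence after a minimum 48 h, 37 C compound exposure with 20 nM CPT in Tdp1-knockout DT40 cells stably expressing hTDP1, seeded 400/well; qHTS titration format.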", "values": [{"smiles": "CC(=O)Nc1ccc(NC(=O)c2c(C)nc3ccccn23)cc1", "activity change, negative = growth inhibition": "inactive: -2.83%"}, {"smiles": "Cc1cc(C)c2c(CC(=O)N(Cc3ccc(N(C)C)cc3)Cc3ccco3)coc2c1", "Potency": "active: 14.6 µM"}, {"smiles": "COc1cc(NC(=O)c2c(F)cccc2F)c(Cl)cc1Cl", "activity change, negative = growth inhibition": "inactive: 24.2%"}, {"smiles": "CCOC1=C2[C@@H](CN(S(=O)(=O)c3ccc(C)cc3)[C@H]2c2ccccc2Cl)[C@H]2C(=O)NC(=O)[C@H]2C1", "Potency": "inconclusive [inhibitor, single point]"}, {"smiles": "O=C(N/N=C/c1ccccn1)c1ccc(Cl)cc1", "Potency": "active: 11.6 µM"}, {"smiles": "CCOc1ccc(CNC(=O)c2cc3oc4ccccc4c3n2C)cc1", "Potency": "inconclusive [inhibitor, single point]"}, {"smiles": "Cc1ccc(OCc2ccc(C(=O)NCc3cccnc3)cc2)cc1C", "Potency": "active: 3.26 µM"}, {"smiles": "COc1ccc(NS(=O)(=O)c2cccc(NC(=O)c3ccccn3)c2)cc1", "Potency": "active: 20.6 µM"}, {"smiles": "O=C(/C=C/c1ccc(OCCCF)cc1)Nc1ccnc(-c2cccnc2)n1", "Potency": "inconclusive [inhibitor, partial curve]"}, {"smiles": "CC(C)CNC(=O)CSc1ccc(Cl)cc1", "activity change, negative = growth inhibition": "inactive: -4.64%"}, {"smiles": "Cc1ccc(C(=O)Nc2ccc(Cl)c(-c3nc4ncccc4o3)c2)c(C)c1", "Potency": "inconclusive [inhibitor, single point]"}, {"smiles": "Cc1ccccc1OCc1ccc(-c2nc(C#N)c(NCCCN(C)C)o2)o1", "Potency": "inconclusive [inhibitor, single point]"}, {"smiles": "CC(C)[C@H](NC(=O)N1CCn2c1nc1ccccc12)C(=O)N1CCCCC1", "activity change, negative = growth inhibition": "inactive: -28.9%"}, {"smiles": "O=c1[nH]c(-c2ccccc2)nc(CN2CCCCC2)c1O", "Potency": "inconclusive [inhibitor, single point]"}, {"smiles": "CC1=NNC(=O)C1C(c1ccccc1)C(C#N)C#N", "note": "(stereo not given)", "activity change, negative = growth inhibition": "inactive: -26.9%"}, {"smiles": "CCc1cnc(Nc2nc(C(N)c3ccccc3Cl)cs2)nc1", "note": "(stereo not given)", "Potency": "inconclusive [inhibitor, single point]"}, {"smiles": "CCCCCn1c(CN2CCN(c3cccc(Cl)c3)CC2)nc2c1c(=O)[nH]c(=O)n2C", "Potency": "active: 20.6 µM"}, {"smiles": "COc1cc(/C=C/c2cc(C(F)(F)F)[nH]c(=O)n2)cc(OC)c1OC", "Potency": "inconclusive [inhibitor, single point]"}, {"smiles": "CCOCCCNC(=S)N1CCCN(c2nc3cc(C)cc(C)c3cc2C#N)CC1", "Potency": "active: 18.4 µM"}, {"smiles": "COc1cccc(NC(=O)C2(C)CCN2C(=O)C2CCCCC2)c1", "note": "(stereo not given)", "Potency": "inconclusive [inhibitor, single point]"}, {"smiles": "CCc1cc2c(cc(C(=O)O)n2C)s1", "activity change, negative = growth inhibition": "inactive: -3%"}, {"smiles": "O=C(COC(=O)c1cccc(Cl)c1)NC1CCCCCCC1", "activity change, negative = growth inhibition": "inactive: -6.99%"}, {"smiles": "O=C(CN1C(=O)C(=O)c2ccccc21)c1ccccc1", "Potency": "active: 18.4 µM"}, {"smiles": "Cc1cc(O)c2c(C)c(CC(=O)N3CCN(C(=O)C4COc5ccccc5O4)CC3)c(=O)oc2c1", "note": "(stereo not given)", "Potency": "inconclusive [inhibitor, single point]"}, {"smiles": "O=C(CC1N=C2c3ccccc3N=C(SCc3ccccc3Cl)N2C1=O)NCc1ccco1", "note": "(stereo not given)", "Potency": "inconclusive [inhibitor, single point]"}, {"smiles": "CN(C(=O)COC(=O)C1COc2ccccc2O1)C1(C#N)CCCCC1", "note": "(stereo not given)", "activity change, negative = growth inhibition": "inactive: 7.33%"}, {"smiles": "CC(=O)Nc1cccc(C(=O)OC(C)C(=O)N2CCc3ccccc32)c1", "note": "(stereo not given)", "Potency": "active: 29.1 µM"}, {"smiles": "Cc1ccccc1NC(=O)CSc1nnc(-c2ccccc2)n1-c1ccccc1", "activity change, negative = growth inhibition": "inactive: -74.6%"}, {"smiles": "O=C(Nc1cccc(-n2cnnn2)c1)c1ccoc1COc1ccc(Cl)cc1", "Potency": "inconclusive [inhibitor, single point]"}, {"smiles": "COc1ccc(NC(=O)CSC2CC(=O)N(c3ccc4c(c3)OCCO4)C2=O)cc1", "note": "(stereo not given)", "Potency": "active: 20.6 µM"}, {"smiles": "CCN(CC)CCNC(=O)c1cc(Sc2nnc(C)s2)nc2ccccc12", "activity change, negative = growth inhibition": "inactive: 7.06%"}, {"smiles": "CCOc1ccc(C(=O)NCCn2cc(SCC(=O)NCCc3ccc(OC)c(OC)c3)c3ccccc32)cc1", "Potency": "inconclusive [inhibitor, partial curve, poor fit]"}, {"smiles": "Cc1ccc(-c2csc(N(Cc3ccco3)C(=O)c3cccs3)n2)cc1", "Potency": "inconclusive [inhibitor, single point]"}, {"smiles": "CCn1c2nc(SCCN3CCOCC3)nnc2c2cc(C)cc(C)c21", "Potency": "active: 16.4 µM"}, {"smiles": "O=C1N[C@@H](Cc2ccccc2)C(=O)N2[C@@H]1C[C@]1(Br)c3ccccc3N(S(=O)(=O)c3ccccc3)[C@H]21", "Potency": "inconclusive [inhibitor, single point]"}]}]}
